Results are given in words; binding and its absence hold for the method and conditions named. In cells and extracts the contact can be indirect. Some entries that bind do so weakly or less than the wild type.

We go through 1 molecule from paper PMC11911400, “Mechanism of ASF1 engagement by CDAN1” (Nature Communications, 2025).

Experiment [1] addresses T1, HMHA2* BDA2* ST-CDAN1 (human) (UniProt Q8IWY9).
T1 sequence: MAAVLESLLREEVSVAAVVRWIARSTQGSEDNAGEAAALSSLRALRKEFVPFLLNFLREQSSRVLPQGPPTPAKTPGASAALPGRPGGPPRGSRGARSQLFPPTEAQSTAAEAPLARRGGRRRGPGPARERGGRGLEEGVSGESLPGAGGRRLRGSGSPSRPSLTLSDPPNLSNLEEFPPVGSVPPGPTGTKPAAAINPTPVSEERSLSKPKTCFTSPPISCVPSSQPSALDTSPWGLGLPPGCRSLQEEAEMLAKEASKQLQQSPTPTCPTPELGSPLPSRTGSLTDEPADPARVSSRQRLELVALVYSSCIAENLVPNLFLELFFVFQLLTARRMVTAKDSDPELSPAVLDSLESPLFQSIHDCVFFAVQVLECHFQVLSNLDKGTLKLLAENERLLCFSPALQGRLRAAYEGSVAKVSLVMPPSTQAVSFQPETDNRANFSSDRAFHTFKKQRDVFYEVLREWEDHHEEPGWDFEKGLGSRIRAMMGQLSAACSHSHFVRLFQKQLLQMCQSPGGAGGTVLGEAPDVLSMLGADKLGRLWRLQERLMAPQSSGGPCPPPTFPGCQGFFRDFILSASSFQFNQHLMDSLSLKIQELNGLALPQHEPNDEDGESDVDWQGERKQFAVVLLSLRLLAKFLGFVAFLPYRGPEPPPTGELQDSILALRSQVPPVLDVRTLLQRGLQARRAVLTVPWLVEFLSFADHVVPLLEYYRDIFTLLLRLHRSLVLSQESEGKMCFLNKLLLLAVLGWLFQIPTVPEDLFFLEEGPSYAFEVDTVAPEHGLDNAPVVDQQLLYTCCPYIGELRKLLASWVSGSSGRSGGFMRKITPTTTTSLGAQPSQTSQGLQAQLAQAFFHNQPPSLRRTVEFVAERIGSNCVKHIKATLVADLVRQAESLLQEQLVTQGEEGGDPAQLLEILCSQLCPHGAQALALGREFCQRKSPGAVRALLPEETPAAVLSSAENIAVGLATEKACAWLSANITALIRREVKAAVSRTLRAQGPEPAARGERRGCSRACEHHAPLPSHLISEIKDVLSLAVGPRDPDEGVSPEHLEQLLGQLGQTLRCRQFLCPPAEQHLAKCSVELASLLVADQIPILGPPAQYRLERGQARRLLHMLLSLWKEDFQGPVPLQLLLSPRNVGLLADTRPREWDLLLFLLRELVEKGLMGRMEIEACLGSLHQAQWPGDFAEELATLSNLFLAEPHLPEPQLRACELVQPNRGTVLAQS
Kind of experiment: pull-down; Strep-Tactin pulldown of transiently transfected ST-CDAN1 variants from Flp-In 293 T-REx lysates; endogenous ASF1A, ASF1B and CDIN1 detected by immunoblotting; IP buffer with 1% Triton X-100, 1 hr at 4 °C. Background: A western blot detects proteins with antibodies after separation by electrophoresis.

Experiment [2] addresses T2, Strep-CDAN1 HMHA1* BDA1* HMHA2* BDA2* (all four binding elements mutated) (human) (UniProt Q8IWY9).
T2 sequence: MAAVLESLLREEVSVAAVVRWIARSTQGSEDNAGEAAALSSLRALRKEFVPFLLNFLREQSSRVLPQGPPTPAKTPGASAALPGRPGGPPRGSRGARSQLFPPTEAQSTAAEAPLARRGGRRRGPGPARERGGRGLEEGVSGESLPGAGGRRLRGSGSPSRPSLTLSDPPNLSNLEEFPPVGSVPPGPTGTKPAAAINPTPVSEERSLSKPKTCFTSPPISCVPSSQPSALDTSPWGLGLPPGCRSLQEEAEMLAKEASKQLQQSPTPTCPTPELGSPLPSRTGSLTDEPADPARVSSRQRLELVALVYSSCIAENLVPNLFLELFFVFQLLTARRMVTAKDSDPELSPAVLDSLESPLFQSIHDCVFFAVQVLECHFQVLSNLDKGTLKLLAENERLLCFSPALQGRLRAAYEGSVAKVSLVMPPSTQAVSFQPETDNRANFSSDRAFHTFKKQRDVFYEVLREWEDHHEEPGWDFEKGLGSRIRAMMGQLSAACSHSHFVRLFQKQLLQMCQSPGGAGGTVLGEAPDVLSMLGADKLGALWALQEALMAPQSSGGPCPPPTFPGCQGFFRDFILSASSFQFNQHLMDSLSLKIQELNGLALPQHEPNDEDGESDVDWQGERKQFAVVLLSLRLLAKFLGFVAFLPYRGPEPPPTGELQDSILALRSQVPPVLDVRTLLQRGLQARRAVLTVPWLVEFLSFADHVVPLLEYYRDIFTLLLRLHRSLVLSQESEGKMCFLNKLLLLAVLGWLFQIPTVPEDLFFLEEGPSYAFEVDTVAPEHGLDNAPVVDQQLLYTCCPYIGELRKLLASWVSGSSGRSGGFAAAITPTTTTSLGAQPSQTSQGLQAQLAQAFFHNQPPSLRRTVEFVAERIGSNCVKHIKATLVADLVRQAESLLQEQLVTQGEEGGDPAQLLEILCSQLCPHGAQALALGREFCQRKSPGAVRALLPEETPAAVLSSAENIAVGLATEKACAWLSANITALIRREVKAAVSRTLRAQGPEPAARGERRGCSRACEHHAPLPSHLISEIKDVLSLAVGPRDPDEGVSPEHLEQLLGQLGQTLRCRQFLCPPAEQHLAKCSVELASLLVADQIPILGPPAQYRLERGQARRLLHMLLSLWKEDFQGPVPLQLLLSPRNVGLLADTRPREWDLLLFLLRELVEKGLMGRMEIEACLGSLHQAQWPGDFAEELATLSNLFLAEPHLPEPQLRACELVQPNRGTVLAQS
The experiment is described as above.

B1: FLAG-tagged CDIN1 (F-CDIN1) (natural protein, UniProt Q9Y2V0 1-281, looked up)
chain: MILTKAQYDEIAQCLVSVPPTRQSLRKLKQRFPSQSQATLLSIFSQEYQKHIKRTHAKHHTSEAIESYYQRYLNGVVKNGAAPVLLDLANEVDYAPSLMARLILERFLQEHEETPPSKSIINSMLRDPSQIPDGVLANQVYQCIVNDCCYGPLVDCIKHAIGHEHEVLLRDLLLEKNLSFLDEDQLRAKGYDKTPDFILQVPVAVEGHIIHWIESKASFGDECSHHAYLHDQFWSYWNRFGPGLVIYWYGFIQELDCNRERGILLKACFPTNIVTLCHSIA
notes: C15orf41); cDNA synthesized by IDT; source: Expi293, transiently transfected, in lysate and purified in complexes (anti-FLAG, Strep-Tactin); not shown: 3xFLAG, N-terminal, kept
With B1, the binding entry in experiment [1] and in experiment [2] was “binds” in each case.
